About 540 (0.36%) of roughly 150,000 compounds showed an effect of 50% or more. The list shows a part of the results.
System: Plasmodium falciparum
Assay: Primary screen in NF54 nanoGlo assay, in single point, at 2uM, 72h; a lower Z score goes with more inhibition
Type: functional, Erythrocyte
Conditions: timepoint 72 hour

SMILES	% Inhibition	Z score
N#Cc1cc2n(n1)CCCN(C(=O)C[C@H]1CCOC1)C2	-6%	1.14
CC(C)N1CC[C@H](CN(C)C(=O)Cc2ccc(F)cc2Cl)C1	-6%	1.18
Cc1nc(CO[C@H]2CCN(c3ccnc4c(Cl)cccc34)C2)cs1	-39%	4.52
CC(C(=O)NCC1CCCOC1)N(C(=O)OC(C)(C)C)C1CC1 (stereo not given)	19%	-2.37
CNc1ncccc1CN1CCCn2nc([C@@H](O)CO)cc2C1	-24%	2.08
Cn1nc(-c2nccn2CCc2n[nH]c(=O)[nH]2)c2c(Cl)cccc21	-19%	2.59
O=C(O)CC(C(=O)NC1CCCCC1)C1CCCO1 (stereo not given)	-12%	1.54
NC(=O)[C@H]1CCCN(CCn2cc(-c3ccc(F)c(Cl)c3)nn2)C1	9%	-1
C[C@H]1Cc2ccccc2N1C(=O)c1cocn1	9%	-1.03
COCCN(CC(=O)N(Cc1ccccc1)Cc1ccc(C)o1)C(C)=O	-20%	1.85
C[C@@H]1C[C@H](O)CN(C(=O)c2ccc3nccn3c2)C1	-4%	0.52
Cc1cc(C#N)cc(NC(=O)CN(C)S(C)(=O)=O)n1	-3%	0.51
CC(C)(C)NC(=O)N1CC(Oc2nccs2)C1	-16%	2.07
O=C(NCc1cn(-c2cccnc2)nn1)N1CCOCC1	-2%	0.24
CCc1ccccc1NC(=O)CN1C(=O)[C@H]2CCCC2=Nc2cc(C)c(C)cc21	0%	-0.02
CCn1c(C2CCNCC2)nn(CCOc2ccc(C)cc2C)c1=O	-6%	0.57
C[C@H]1COC2(CCC2)CN1C(=O)NCCc1ccoc1	0%	0.01
C[C@H](CN)NCc1ccc(F)cc1Br	-9%	1.23
CCNC(=O)NC(=O)[C@H](C)N1CCC(Nc2cccc(C)n2)CC1	-6%	1.22
CCOC(=O)c1nnc(C(=O)OCC)[nH]1	-32%	3.78
C=CCC(CC)NC(=O)NC(CC)C1CCCO1 (stereo not given)	10%	-1.85
O=S(=O)(NCC1(C2CC2)CCC1)c1cnn(CC(F)(F)F)c1	2%	-0.25
O=C(Nc1ccccc1)OC1C2CCCC1C(N1CCCCC1)CC2 (stereo not given)	-10%	0.87
Cc1ccccc1CN1CCCN(C(=O)c2ccncc2Cl)CC1	-12%	1.07
CCOC(=O)C[C@H]1COCCN1C(=O)c1coc(CN2CCc3ccccc3C2)n1	-11%	1.68

Source: ChEMBL document CHEMBL4888484, “Replenishing the malaria drug discovery pipeline: Screening and hit evaluation of the MMV Hit Generation Library 1 (HGL1) against asexual blood stage Plasmodium falciparum ,using a nano luciferase reporter read-out” (2022)
